In the BET-seq Pho4 binding data (Le et al. 2018):
The other results are listed elsewhere or left out. Values were computed here from the reads of four pooled replicates and scatter widely.

What follows are sequences tested against T1, Pho4 (S. cerevisiae) (UniProt P07270) (assay: relative binding free energy (BET-seq); higher = weaker binding). Conditions: reference: library average.
T1 sequence: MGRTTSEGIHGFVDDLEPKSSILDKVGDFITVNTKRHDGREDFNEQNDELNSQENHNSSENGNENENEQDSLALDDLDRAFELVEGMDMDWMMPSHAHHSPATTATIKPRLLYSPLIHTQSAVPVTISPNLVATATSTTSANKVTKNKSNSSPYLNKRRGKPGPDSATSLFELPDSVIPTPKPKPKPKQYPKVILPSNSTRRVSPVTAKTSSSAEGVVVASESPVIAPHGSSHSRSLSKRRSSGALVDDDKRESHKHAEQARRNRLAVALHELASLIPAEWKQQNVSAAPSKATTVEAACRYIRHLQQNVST

| Sequence | relative binding free energy [kcal/mol] |
| --- | --- |
| TGATGCACGTGGGGTC | -0.07 |
| TGTTCCACGTGTGTTG | 0 |
| AGCTCCACGTGGGTGT | -0.07 |
| GAGTACACGTGTGTTC | 0.23 |
| ATGGTCACGTGGTTAC | -0.01 |
| GGCGTCACGTGGGCGT | -0.03 |
| GGAGTCACGTGGTCTG | 0.16 |
| CTGTTCACGTGAGGAT | 0.3 |
| CCGGGCACGTGGGAGT | -0.26 |
| GGATACACGTGGGGAA | -0.04 |
| GGGCACACGTGTGTAT | 0.03 |
| TTTTTCACGTGGGCTT | 0.19 |
| GTGTACACGTGGGCTA | -0.11 |
| GAGTTCACGTGGTACG | 0.33 |
| TTACACACGTGTTATT | 0.07 |
| TACGTCACGTGTTCGG | 0 |
| TGACTCACGTGTTTTG | 0.22 |
| GTTGACACGTGGTGGG | -0.12 |
| ATATTCACGTGATGAT | 0.29 |
| AAGGGCACGTGGCGGA | -0.21 |
| AATAGCACGTGCGGTT | -0.04 |
| AGGTTCACGTGAATAA | 0.58 |
| GTTATCACGTGGGAAT | 0.15 |

| Sequence | relative binding free energy [kcal/mol] |
| --- | --- |
| GTGTCCACGTGGGTTG | -0.02 |
| AGGTCCACGTGTGATT | 0.11 |
| TTAGTCACGTGGGAGT | 0.02 |
| TCGTGCACGTGTCGGG | 0.02 |
| AGTTTCACGTGTTTTT | 0.36 |
| AGGCACACGTGTTTGA | 0.1 |
| GTTATCACGTGTATGT | 0.18 |
| GGGATCACGTGTGGCA | 0.09 |
| TGGGTCACGTGTATAT | 0.2 |
| CAAGGCACGTGGCGTG | -0.25 |
| ATGTACACGTGTCTTT | 0.17 |
| AAAGTCACGTGAGATT | 0.24 |
| TGCGTCACGTGACGTG | 0.18 |
| ATACACACGTGGTTTT | 0 |
| AGCTACACGTGCGGGG | 0.07 |
| GAGTGCACGTGTCGGA | 0.18 |
| CTTTGCACGTGAGAAG | 0.22 |
| GTGTACACGTGGTTCG | 0.04 |
| GTTATCACGTGTCAGT | 0.29 |
| GGACTCACGTGTTTAT | 0.38 |
| AGTGCCACGTGTATAG | -0.1 |
| TTGATCACGTGGCGGA | 0.06 |
| GGTTCCACGTGGCTGT | 0.09 |

| Sequence | relative binding free energy [kcal/mol] |
| --- | --- |
| TGTGCCACGTGGGAAT | -0.08 |
| GTATTCACGTGCTAGT | 0.22 |
| TTTATCACGTGTAACG | 0.19 |
| CGGGTCACGTGGTATA | 0.12 |
| AATATCACGTGATTTA | 0.19 |
| GAGGCCACGTGGTTTA | 0 |
| CTGGGCACGTGTAGAT | 0.02 |
| TAGGTCACGTGTTGAC | 0.05 |
| CCTGTCACGTGGGTTG | -0.02 |
| CTCGTCACGTGGGTGG | -0.1 |
| TTATACACGTGATAGG | 0.11 |
| TAGGGCACGTGAGCCG | 0.08 |
| GCTAACACGTGGTGTG | 0.01 |
| TATCTCACGTGTGGGT | 0.3 |
| CTGAACACGTGGTAGG | -0.1 |
| CAGTGCACGTGTGAGG | 0.03 |
| AGCGTCACGTGTGCTG | 0.15 |
| GAGTTCACGTGGGGAG | 0.22 |
| CGGGACACGTGATGTG | 0.13 |
| GCGGACACGTGCGGTT | 0.07 |
| TTATTCACGTGAGTGT | 0.42 |
| TGCGGCACGTGAAAGG | 0.14 |
| TGGTCCACGTGCTTTG | -0.05 |

| Sequence | relative binding free energy [kcal/mol] |
| --- | --- |
| AACGTCACGTGAGGGT | 0.36 |
| ATATTCACGTGGGCAG | 0.12 |
| TAGTACACGTGGACGG | -0.02 |
| AGCGTCACGTGGACGG | 0.05 |
| ATGTGCACGTGTGTTA | -0.04 |
| CGTTCCACGTGGGGGG | -0.06 |
| TACGTCACGTGTCGTG | 0.08 |
| CGGTGCACGTGAATTT | 0.28 |
| AGGATCACGTGCCGGT | 0.13 |
| GGCACCACGTGTGGGA | 0.05 |
| TGAAACACGTGGGGGG | -0.15 |
| TTGTGCACGTGAGAGA | 0.11 |
| GGTATCACGTGGGGGC | 0.06 |
| GGGTTCACGTGTGGGG | 0.43 |
| TTAACCACGTGTGTTG | -0.04 |
| GTATTCACGTGAGCGG | 0.2 |
| CTTGTCACGTGAGTAT | 0.2 |
| GGGAACACGTGATTGT | 0.26 |
| GTGTCCACGTGATTTG | 0.31 |
| CAAGGCACGTGTGGGG | -0.13 |
| CTTGACACGTGGGGTA | -0.14 |
| TTTTGCACGTGAATCA | 0.21 |
| TTGAGCACGTGAAGTA | 0.26 |

| Sequence | relative binding free energy [kcal/mol] |
| --- | --- |
| AACGTCACGTGGTTGG | 0.13 |
| TGGGCCACGTGAATGT | 0.08 |
| GGGATCACGTGGCATT | 0.06 |
| TTCAGCACGTGGCTGG | -0.08 |
| GGGGTCACGTGTTTAC | 0.14 |
| TGGTGCACGTGGTTCG | 0.09 |
| AGTGGCACGTGTTGCT | -0.2 |
| GTTGTCACGTGCCGAG | 0.09 |
| TGGCTCACGTGAATGG | 0.38 |
| CGTGACACGTGTTTGA | 0.04 |
| CTTTTCACGTGGGGGT | 0.13 |
| CTATGCACGTGATTTG | 0.14 |
| AGTGGCACGTGGGTGT | -0.19 |
| CTGGACACGTGGGTTG | -0.11 |
| AGTGACACGTGACGGG | -0.05 |
| GGTCGCACGTGGTTAA | -0.09 |
| TATTTCACGTGGGGTT | 0.19 |
| AAATACACGTGTGAGT | 0.15 |
| TATCTCACGTGGTTGA | 0.26 |
| GTGGTCACGTGACGGG | 0.29 |
| TTTTTCACGTGATAAC | 0.39 |
| GTATGCACGTGGAGCT | 0 |
| AGTGTCACGTGGATTA | 0.08 |
